# Reference: PubChem BioAssay (Tox21)
# Values joined by “and” are separate entries in the source; they are usually repeats but may differ in a detail not shown here. Equal entries are not always repeated. Inconclusive means that the source gave no clear call. Such entries were picked first, then a sample of the others. Potencies of inconclusive entries are doubtful fits and often do not repeat. Active and inactive are the calls of the source. Unless noted, calls follow the shape of the dose curve; as a rule, active = well fitted curve in the direction sought with a large enough effect in the repeat runs; inconclusive = weak or mixed curves; inactive = no such curve, though single readings can be large; an effect the other way counts as inactive or inconclusive.
# What was measured:
# [1] = qHTS assay to identify small molecule antagonists of the peroxisome proliferator-activated receptor gamma (PPARg) signaling pathway - cell viability counter screen (AID 743194); conditions: PPARg-bla HEK293H viability, CellTiter-Glo luminescence, 17 h, co-treated with 50 nM rosiglitazone; activity change, negative = cytotoxicity: at 62.6 µM (top of the series) unless noted; also: nearly all actives have a fitted effect of over 55% in size; as to activity change, negative = cytotoxicity: % is scaled to controls: 0 for no effect and ±100 for the full control effect
# Method in brief: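 Viability was measured as CellTiter-Glo luminescence in GeneBLAzer PPARg UAS-bla HEK293H cells. These cells had been exposed 17 h at 37 C to compounds together with rosiglitazone at 50 nM final, with the beta-lactamase readout taken in the same wells.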
# [2] = qHTS assay for small molecule agonists of the antioxidant response element (ARE) signaling pathway (AID 743202; active = well fitted activation curve with a large enough effect in the signal ratio in the repeat runs, not every such curve was filed as active; inconclusive = weak or mixed curves, or effect the other way; inactive = no such curve, though single readings can be large or run the other way; the % refers to the signal ratio; as to activation: % is scaled to controls: 0 for no effect and ±100 for the full control effect); conditions: HepG2 ARE-bla reporter, beta-lactamase FRET, 16 h; activation: at 73.3 µM (top of the series) unless noted
# Method in brief: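 After 16 hours of compound treatment at 37 C, HepG2 cells with a stably integrated ARE-driven beta-lactamase reporter were loaded 2 hours at room temperature with LiveBLAzer B/G FRET substrate and fluorescence intensity measured.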
# [3] = qHTS assay for small molecule activators of the heat shock response signaling pathway (AID 743210; active = well fitted activation curve with a large enough effect in the signal ratio in the repeat runs, with a control signal flat, not every such curve was filed as active; inconclusive = weak or mixed curves; the % refers to the signal ratio; as to activation: % is scaled to controls: 0 for no effect and ±100 for the full control effect); conditions: HeLa HSE-bla reporter, beta-lactamase ratio, 5 h; activation: at 62.6 µM (top of the series) unless noted
# Method in brief: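 Compound exposure lasted 5 h at 37 C in HeLa cells carrying a heat-shock-element-driven beta-lactamase reporter. Read-out: fluorescence intensity after 2.5 h room-temperature loading with LiveBLAzer B/G FRET substrate.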
# [4] = qHTS assay to identify small molecule agonists of the peroxisome proliferator-activated receptor delta (PPARd) signaling pathway - cell viability counter screen (AID 743211); conditions: PPARd-bla HEK293H viability, CellTiter-Glo luminescence, 17 h; activity change, negative = cytotoxicity: at 62.6 µM (top of the series); also: nearly all actives have a fitted effect of over 55% in size; as to activity change, negative = cytotoxicity: % is scaled to controls: 0 for no effect and ±100 for the full control effect
# Method in brief: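 Luminescent ATP viability assay (CellTiter-Glo, 30 min RT) in UAS-bla HEK293H cells carrying the PPAR delta reporter construct, 3000 cells/well, after a 17 h compound treatment at 37 C.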
# [5] = qHTS assay for small molecule agonists of the antioxidant response element (ARE) signaling pathway - cell viability counter screen (AID 743203; calls by dose curve; also: nearly all actives have a fitted effect of over 55% in size); conditions: ARE-bla HepG2 viability, CellTiter-Glo luminescence, 16 h; viability change, negative = cytotoxic: at 73.3 µM (top of the series)
# Method in brief: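 Viability counter screen: stably transfected ARE-bla HepG2 line, 16 hrs compound exposure at 37C/5% CO2, ATP-based CellTiter-Glo luminescence measured in the reporter wells.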
# [6] = qHTS assay for small molecule activators of the heat shock response signaling pathway - cell viability counter screen (AID 743209); conditions: HSE-bla HeLa viability, CellTiter-Glo luminescence, 5 h; activity change, negative = cytotoxicity: at 62.6 µM (top of the series) unless noted; also: nearly all actives have a fitted effect of over 50% in size
# Method in brief: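 Viability of HSE-bla HeLa cells is measured with CellTiter-Glo in the wells already used for the reporter read. Compound exposure lasts 5 h at 37 C, and luminescence is read after 30 min at room temperature.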
# Potency is read from the fitted curve at half-maximal effect; tags tell the direction and shape of the fitted curve or compound fluorescence and quenching.
structure (smiles),measurement,setting,value
COC(=O)c1ccccc1C,"activity change, negative = cytotoxicity",[1],inconclusive: -30.7% [cytotoxic]
same,Potency,[2],inactive
same,Potency,[3],inactive
CC1(C)NC(=O)N(c2ccc([N+](=O)[O-])c(C(F)(F)F)c2)C1=O,Potency,[1],"inconclusive: 1.55 µM [cytotoxic, full curve, poor fit]"
same,Potency,[2],active: 6.86 µM and active: 26.6 µM
same,Potency,[4],"inconclusive: 61.7 µM [cytotoxic, partial curve, poor fit]"
CCCCN(CCCC)CCCCCCN(CCCC)CCCC,Potency,[2],inactive
CC(C)CC(=O)OCc1ccccc1,Potency,[2],inactive
COc1ccc(C2C(=O)c3ccccc3C2=O)cc1,Potency,[1],"inconclusive: 21.1 µM [cytotoxic, partial curve]"
same,Potency,[5],inconclusive: 9.44 µM [cytotoxic]
CC(C)(C)NC(N)=O,activation,[2],inconclusive: -16.1%
Cc1onc(-c2c(Cl)cccc2Cl)c1C(=O)N[C@@H]1C(=O)N2[C@@H]1SC(C)(C)[C@@H]2C(=O)O,Potency,[1],"inconclusive: 0.0473 µM [cytotoxic, full curve, poor fit]"
same,Potency,[2],inconclusive: 26.6 µM
same,Potency,[4],inactive
C=CC(=O)OCCOC(=O)C=C,Potency,[1],"inconclusive: 49 µM [cytotoxic, single point]"
same,Potency,[2],active: 61.1 µM
same,Potency,[6],active: 6.92 µM
same,Potency,[4],"inconclusive: 54.9 µM [cytotoxic, single point]"
CN(C)CCCN1c2ccccc2CCc2ccccc21,Potency,[1],inactive
same,Potency,[4],"active: 30.9 µM and inconclusive: 26.6 µM [cytotoxic, partial curve]"
CN(C)CCc1c[nH]c2ccc(C[C@H]3COC(=O)N3)cc12,Potency,[2],inactive
N[C@H]1C(O)O[C@H](CO)[C@@H](O)[C@@H]1O (stereo not given in full),activation,[2],inconclusive: -7.59%
CC(C)(O)CCc1ccccc1,Potency,[1],inactive
same,Potency,[2],inactive
same,Potency,[4],"inconclusive: 54.9 µM [rising, single point]"
O=C1C(c2[nH]c3ccc(S(=O)(=O)O)cc3c2O)=Nc2ccc(S(=O)(=O)O)cc21,activation,[2],inconclusive: 22%
CN(C)CCCCCCN(C)C,Potency,[2],inactive
C=CCCCC,activation,[2],inconclusive: -2.3% [at 94.8 µM]
CCO[Si](CCC1CCC2OC2C1)(OCC)OCC (stereo not given),Potency,[2],inactive
CCC(=O)Oc1ccc(/C(CC)=C(\CC)c2ccc(OC(=O)CC)cc2)cc1,Potency,[1],"inconclusive: 54.9 µM [cytotoxic, single point]"
same,Potency,[2],"inconclusive: 68.6 µM [rising, single point]"
same,Potency,[6],"inconclusive: 54.9 µM [cytotoxic, single point]"
same,Potency,[3],inconclusive: 54.9 µM
CCCCCCCCCCO[C@@H]1O[C@H](CO)[C@@H](O)[C@H](O)[C@H]1O,activation,[2],inconclusive: 36.9%
COC(=O)C(c1ccccc1Cl)N1CCc2sccc2C1 (stereo not given),Potency,[2],inactive
CCN(CC)CCNC(=O)c1cc(Cl)c(N)cc1OC,Potency,[2],inactive
Cc1cc2nc3ccc(=[N+](C)C)cc-3sc2cc1N,Potency,[1],"inconclusive: 11.9 µM [cytotoxic, partial curve, poor fit]"
same,Potency,[2],active: 2.11 µM
same,Potency,[3],"inconclusive: 33.5 µM [activator, single point]"
same,Potency,[4],"inconclusive: 6.68 µM [cytotoxic, partial curve, poor fit]"
OC[C@H]1O[C@H](O[C@H]2O[C@H](CO)[C@@H](O)[C@H](O)[C@H]2O)[C@H](O)[C@@H](O)[C@@H]1O,Potency,[1],inactive
same,Potency,[4],inactive
C=CCOC(=O)c1ccccc1C(=O)OCC=C,Potency,[2],"inconclusive: 75.8 µM [rising, partial curve, poor fit]"
CC(=O)NNC(C)=O,Potency,[2],inactive
CC(=O)NCCO,activation,[2],inconclusive: 1.42%
O=C(O)c1cc(=O)c2ccccc2o1,Potency,[2],inactive
CC(C)NCC(O)COc1cccc2ccccc12 (stereo not given),"activity change, negative = cytotoxicity",[1],inconclusive: 20.9% [at 81.1 µM]
same,Potency,[5],"inconclusive: 68.6 µM [cytotoxic, single point]"
same,Potency,[6],inactive
same,Potency,[4],"inconclusive: 21.9 µM [cytotoxic, partial curve]"
C=C(C)[C@H]1CC=C(C)C(=O)C1,Potency,[1],inactive
same,activation,[2],inconclusive: -1.7%
same,Potency,[3],inactive
C[C@@H](O)[C@H]1C(=O)N2C(C(=O)O)=C([C@H]3CCCO3)S[C@H]12,Potency,[2],"inconclusive: 13.3 µM [falling, partial curve]"
COc1cc(NS(=O)(=O)c2ccc(N)cc2)nc(OC)n1,activation,[2],inconclusive: 3.58%
